# The whole screen tested about 390,000 compounds, of which about 150 (0.038%) were called active. Inconclusive results, whose numbers are uncertain, are shown with a selection of clear calls. Calls follow the shape of the dose curve; as a rule, active = well fitted inhibition curve with a large enough effect; inconclusive = small, poorly fitted or top-dose-only effect; inactive = no such curve, though single readings can be large or run the other way. Where the call is inconclusive, the potency comes from a doubtful curve fit.
# Biological target: Regulator of G-protein signaling 4 (Homo sapiens) (UniProt P49798)
# Test: Inhibitors of Regulator of G Protein Signaling (RGS) 4: qHTS; also: nearly all actives have a fitted effect of over 75% in size
# Settings: Transcreener GDP fluorescence polarization, RGS4-accelerated GTP hydrolysis; series mostly up to 114 µM
# Method in brief: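 MLSMR compounds (23 nl, pin-transferred) preincubated 10 min at room temperature with a 500nM (2x) first reagent, then RGS4 at 900nM (2x) plus Transcreener GDP mix added; fluorescence polarization (620/688 nm) read before and after 90 min at 30 °C.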
# Potency is read from the fitted curve at half-maximal effect; tags tell the direction and shape of the fitted curve.
# Chain of UniProt P49798 (P49798 whole entry, looked up): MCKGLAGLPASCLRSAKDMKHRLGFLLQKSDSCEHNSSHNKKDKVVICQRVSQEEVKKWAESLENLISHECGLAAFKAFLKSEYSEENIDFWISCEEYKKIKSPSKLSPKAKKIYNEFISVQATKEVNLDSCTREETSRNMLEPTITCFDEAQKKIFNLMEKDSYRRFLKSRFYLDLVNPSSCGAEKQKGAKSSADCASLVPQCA
row,Structure (SMILES),Potency
1,COc1cc(C2NC(=O)c3c(sc4c3CCN(C)C4)N2)ccc1OC(=O)c1ccccc1 (stereo not given),"inconclusive: 50.1 µM [inhibitor, partial curve, poor fit]"
2,COc1ccc(OC)c(NC(=O)Cc2cccs2)c1,"inconclusive: 79.4 µM [inhibitor, single point]"
3,COc1ccc(NC(=O)C2CCN(C(=O)NC3CCCCC3)CC2)c(OC)c1,"inconclusive: 70.8 µM [inhibitor, single point]"
4,COc1ccc([N+](=O)[O-])cc1NC(=O)CSc1nccc(C)n1,"inconclusive: 79.4 µM [inhibitor, partial curve, poor fit]"
5,COc1ccc(C(=O)C(CN2CCOCC2)c2ccccc2)cc1 (stereo not given),inactive
6,O=C(/C(=N/N=C/c1ccc(O)c(O)c1O)c1ccccc1)c1ccccc1,"inconclusive: 89.1 µM [inhibitor, partial curve, poor fit]"
7,COc1ccccc1/C=C/C=N/n1c(-c2ccc(Cl)cc2Cl)n[nH]c1=S,"inconclusive: 100 µM [inhibitor, single point]"
8,COc1ccc(Cl)cc1N1C(=O)CN(Cc2cc(OC)c(OC)c(OC)c2)C1=S,"inconclusive: 70.8 µM [inhibitor, partial curve, poor fit]"
9,O=C(NCc1ccco1)c1cc2c(s1)CSC2,"inconclusive: 44.7 µM [inhibitor, partial curve, poor fit]"
10,Cc1ccc(-n2c(C)cc(/C=C3\NC(=O)NC3=O)c2C)c(C)c1,"inconclusive: 79.4 µM [inhibitor, partial curve, poor fit]"
11,CC(C)(C)c1cc(CCC(=O)NNC(=S)NC(=O)c2ccccc2)cc(C(C)(C)C)c1O,inactive
12,CCCCCNC(=O)c1c[nH]c2ccc(S(=O)(=O)N3CCC4(CC3)OCCO4)cc2c1=O,"inconclusive: 89.1 µM [inhibitor, single point]"
13,C/C=C/C=C\C(=O)Nc1cccc(C2=NOC3(C2)C[C@H](C(N)=O)N(C(=O)CC#N)C3)c1 (stereo not given in full),"inconclusive: 17.8 µM [inhibitor, full curve, poor fit]"
14,C/C(=N\Nc1ccc(Cl)c(Cl)c1)c1ccc(-n2ccnc2)cc1,"inconclusive: 89.1 µM [inhibitor, single point]"
15,CCCC(=O)Nc1cc(-c2nn(C)c(=O)c3ccccc23)ccc1OC,inactive
16,COc1ccc(NC(=O)CSc2nc3sc4c(c3c(=O)n2-c2ccc(OC)cc2)CCN(C)C4)cc1,inactive
17,CC1CCCN(Cc2c(O)ccc3c2O/C(=C\c2ccco2)C3=O)C1 (stereo not given),"inconclusive: 20 µM [inhibitor, full curve, poor fit]"
18,COc1cccc2c(=O)c3cccc(N)c3[nH]c12,"inconclusive: 112 µM [inhibitor, partial curve, poor fit]"
19,O=C1NC(=S)SC1=Cc1ccccc1Cl,inactive
20,Clc1nc(NCc2ccco2)c2[nH]cnc2n1,inactive
21,CCOC(=O)/C(C#N)=C1\CC2CCC1(C)C2(C)C (stereo not given),"inconclusive: 39.8 µM [inhibitor, partial curve, poor fit]"
22,O=S(=O)(Nc1ccc(-c2ccc(N3CCCC3)nn2)cc1)c1cc(F)ccc1F,inactive

row,Structure (SMILES),Potency
1,COc1ccc(OC)c(NC(=O)CSc2nnc(C)n2Cc2ccccc2)c1,inactive
2,CC1CC(C)CN(C(=O)CSCC(=O)Nc2nc(-c3cccs3)cs2)C1 (stereo not given),"inconclusive: 79.4 µM [inhibitor, single point]"
3,Cc1ccc(Cn2c(=S)[nH]c3ccc(N4CCOCC4)cc3c2=O)o1,"inconclusive: 70.8 µM [inhibitor, partial curve, poor fit]"
4,CC(C)CCN(C(=O)Nc1ccc(Cl)c(Cl)c1)C(C)c1cccs1 (stereo not given),"inconclusive: 100 µM [inhibitor, single point]"
5,COC(=O)c1ccc(CC(=O)c2c(C)cc(O)cc2O)o1,"inconclusive: 56.2 µM [inhibitor, partial curve, poor fit]"
6,c1ccc2sc(N3CCN(Cc4ccc5c(c4)OCO5)CC3)nc2c1,"inconclusive: 0.106 µM [inhibitor, full curve, poor fit]"
7,Cc1cc(C2=NNC(=Nc3ccccc3)SC2)c(C)n1C,"inconclusive: 44.7 µM [inhibitor, partial curve, poor fit]"
8,CCCCCCCCCCCCCCCCCCNC(=O)OCC(COP(=O)([O-])OCC[n+]1ccsc1)OC (stereo not given),"inconclusive: 5.97 µM [inhibitor, full curve]"
9,COc1cc(/C=C2/SC(=S)N(CC(=O)O)C2=O)ccc1OC(=O)c1ccco1,"inconclusive: 56.2 µM [inhibitor, partial curve, poor fit]"
10,COc1ccccc1S(=O)Cc1ccc(C(=O)NCc2ccccc2Cl)o1 (stereo not given),"inconclusive: 31.6 µM [inhibitor, full curve, poor fit]"
11,Cc1ccc(C2=NN(C(=O)CCl)C(c3ccco3)C2)o1 (stereo not given),"inconclusive: 17.8 µM [inhibitor, full curve, poor fit]"
12,CCc1ccccc1NC(=O)C1CCCN(c2cnccn2)C1 (stereo not given),inactive
13,O=C1c2ccccc2-c2onc3c(NCCO)cc(NC4CCCCC4)c1c23,"inconclusive: 44.7 µM [inhibitor, partial curve, poor fit]"
14,CN(/C=C1/C(=O)CNC1=O)CCO,"inconclusive: 50.1 µM [inhibitor, partial curve, poor fit]"
15,COc1cc(/C=C2/C(=O)c3cccc([N+](=O)[O-])c3C2=O)c(Br)cc1O,"inconclusive: 50.1 µM [inhibitor, partial curve, poor fit]"
16,CC(=O)NCCc1nc2cc(NS(=O)(=O)c3ccc(Cl)cc3)ccc2n1C,inactive
17,Cc1cc(N=Nc2ccc(C)c(N=Nc3cc(C)c(N)cc3N)c2)c(N)cc1N,"inconclusive: 89.1 µM [inhibitor, single point]"
18,CC(C(=O)Nc1ccc(C(=O)O)c(O)c1)N1C(=O)/C(=C\c2ccco2)SC1=S (stereo not given),"inconclusive: 17.8 µM [inhibitor, full curve, poor fit]"
19,CN(C)S(=O)(=O)c1cccc(-c2nn(-c3ccccc3)cc2/C=C2\SC(=S)NC2=O)c1,"inconclusive: 50.1 µM [inhibitor, partial curve, poor fit]"
20,O=C(Nc1ccc2[nH]c(=S)sc2c1)Nc1ccccc1F,"inconclusive: 17.8 µM [inhibitor, full curve, poor fit]"
21,Cc1cc(Br)ccc1Nc1nc(N)nc(N)c1N=O,"inconclusive: 100 µM [inhibitor, single point]"
22,NC(=O)SCC(=O)Nc1ccc(Cl)c(Cl)c1,"inconclusive: 79.4 µM [inhibitor, partial curve, poor fit]"

row,Structure (SMILES),Potency
1,CCCOc1ccc(CCc2n[nH]c(=S)n2-c2ccccc2)cc1,"inconclusive: 100 µM [inhibitor, partial curve, poor fit]"
2,CCc1ccc(NC(=O)CN(Cc2ccccc2)S(=O)(=O)c2ccc3nc(C)sc3c2)cc1,inactive
3,O=C(O)CCCCCN1C(=O)CSC1=S,"inconclusive: 89.1 µM [inhibitor, single point]"
4,O=C(/C=C/c1ccc2c(c1)OCO2)NCc1ccco1,inactive
5,Cc1ccc(-c2nc(=S)c3c(n2Cc2ccco2)CC(C)(C)OC3)cc1,"inconclusive: 56.2 µM [inhibitor, partial curve, poor fit]"
6,COCCn1c(SCC(=O)c2ccc(Cl)cc2)nnc1C(C)C,"inconclusive: 56.2 µM [inhibitor, partial curve, poor fit]"
7,COc1ccccc1C1C=C(c2ccc(Cl)cc2)Nc2nc(-c3ccc(Cl)cc3)nn21 (stereo not given),"inconclusive: 50.1 µM [inhibitor, partial curve, poor fit]"
8,C=CCOc1ccc(C2C(C(=O)c3ccco3)=C(O)C(=O)N2c2nnc(C)s2)cc1 (stereo not given),"inconclusive: 79.4 µM [inhibitor, partial curve, poor fit]"
9,Cn1ncc2c(Nc3ccc(Br)cc3)nc(Nc3ccc(Br)cc3)nc21,inactive
10,COc1ccc(CC(=O)Nc2ccc(-c3cn4ccccc4n3)cc2)cc1,inactive
11,COc1cccc2c1NC(C(=O)O)C1CC=CC21 (stereo not given),"inconclusive: 50.1 µM [inhibitor, partial curve, poor fit]"
12,O=C(c1ccc(F)cc1)C1CCN(CCn2c(=S)[nH]c3ccccc3c2=O)CC1,"inconclusive: 0.0752 µM [inhibitor, full curve, poor fit]"
13,Cc1ccc(CN(Cc2ccco2)C(=O)c2oc3c(C)c(C)ccc3c2C)cc1,"inconclusive: 17.8 µM [inhibitor, full curve, poor fit]"
14,Cc1ccc(C(=O)c2coc3c2C(=O)C(=O)c2ccccc2-3)cc1,"inconclusive: 11.2 µM [inhibitor, partial curve, poor fit]"
15,Oc1ccccc1C1=NN(c2ccccc2)C(c2ccc(F)cc2)C1 (stereo not given),inactive
16,COC(=O)C1CCN(C(=O)c2cc(-c3ccco3)nc3ccccc23)CC1,"inconclusive: 17.8 µM [inhibitor, full curve, poor fit]"
17,Cc1ccc(S(=O)(=O)N2CCN(C(=O)[C@H](Cc3ccccc3)NC(=O)c3ccco3)CC2)cc1C,"inconclusive: 89.1 µM [inhibitor, single point]"
18,C=CCOc1cccc(C2C(C(=O)c3ccc(C)o3)=C(O)C(=O)N2CCN(C)C)c1 (stereo not given),inactive
19,Nc1nc(SCc2ccccc2Cl)nc2nc3c(cc12)CCCC3,inactive
20,CC(C)COc1ccccc1C1CC(=O)Nc2cc3c(cc21)OCO3 (stereo not given),inactive
21,Cc1[nH]c2ccccc2c1CCNC(=O)c1ccc2c(c1[N+](=O)[O-])C(=O)c1ccccc1C2=O,inactive
